Measured values from PubChem BioAssay AID485367 (National Center for Advancing Translational Sciences (NCATS), 2010).
About 560 (0.17%) of roughly 330,000 compounds were called active. Inconclusive means that the source gave no clear call. Such entries were picked first, then a sample of the others. The call rests on the fitted dose curve; in most records, active means well fitted inhibition curve with a large enough effect; inconclusive means small, poorly fitted or top-dose-only effect, or effect the other way; inactive means flat fitted curve, though single readings scatter. No potency is given beside an inconclusive call; the fits are too rough.

biological target: ATP-dependent 6-phosphofructokinase (Trypanosoma brucei brucei) (UniProt O15648); assay: qHTS Assay to Find Inhibitors of T. brucei phosphofructokinase; further: nearly all actives have a fitted effect of over 60% in size;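 on activity, negative = inhibition: 0% = uninhibited 1x PFK enzyme wells and -100% = no-enzyme wells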; conditions: T. brucei PFK, ADP-Glo luminescence; activity, negative = inhibition: at 57.5 µM (top of the series)
Method in brief: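 Activity is normalized to no-enzyme wells (full inhibition) and 1.25 nM enzyme wells (no inhibition). Reaction: 0.5 mM F6P, 0.1 mM ATP, 45 min RT, ADP-Glo luminescence; concentration-response curves fitted and classed by quality.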
Potency means the concentration at half of the fitted maximal effect; tags describe the fitted curve by direction and shape.

UniProt O15648, sequence (O15648 whole entry, looked up): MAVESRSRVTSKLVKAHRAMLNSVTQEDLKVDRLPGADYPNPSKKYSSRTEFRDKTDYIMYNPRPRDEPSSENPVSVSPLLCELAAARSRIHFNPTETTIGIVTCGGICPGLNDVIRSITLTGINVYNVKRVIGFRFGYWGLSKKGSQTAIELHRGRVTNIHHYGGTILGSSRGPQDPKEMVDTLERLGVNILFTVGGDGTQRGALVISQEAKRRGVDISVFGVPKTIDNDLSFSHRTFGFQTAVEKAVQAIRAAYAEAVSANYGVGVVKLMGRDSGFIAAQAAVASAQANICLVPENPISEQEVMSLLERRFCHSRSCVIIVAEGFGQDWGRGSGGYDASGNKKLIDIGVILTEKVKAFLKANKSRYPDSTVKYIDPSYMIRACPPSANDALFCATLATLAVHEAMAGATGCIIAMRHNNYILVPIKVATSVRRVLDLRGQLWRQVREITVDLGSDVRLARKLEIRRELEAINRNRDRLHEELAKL

SMILES | activity, negative = inhibition | Potency
CN1CCN(S(=O)(=O)c2cccc(C(=O)NCc3ccccc3Cl)c2)CC1 | inactive: -8.59% | –
COc1cccc(CNc2ccc(F)c(Cl)c2)c1OC | – | inconclusive [falling, partial curve]
Cc1nnc(SCC2=C(C(=O)O)N3C(=O)C(NC(=O)Cn4nc(C(F)F)cc4C)C3SC2)s1 (stereo not given) | inactive: -10.3% | –
COc1ccc(Br)cc1S(=O)(=O)N1CCCC1 | inactive: 0.107% | –
Cc1[nH]c2ccccc2c1/C=C(\C#N)C(=O)NCc1ccccc1 | inactive: -0.644% | –
O=C1/C(=C/c2ccco2)SC(=S)N1c1cccnc1 | – | inconclusive [falling, partial curve]
CNC(=O)c1nnsc1S(=O)(=O)c1ccc(Cl)cc1 | – | inconclusive [falling, partial curve, poor fit]
CC(C)Cn1c2c(c(=O)[nH]c1=O)C(NS(=O)(=O)c1ccc(Cl)cc1)(C(F)(F)F)C(=O)N2 (stereo not given) | – | inconclusive [falling, single point]
Cn1c(/C(C#N)=C/c2ccc(O)cc2)nc2ccccc21 | inactive: -9.06% | –
O=C(Nc1ccc(C(=O)O)cc1)Nc1cccc([N+](=O)[O-])c1 | – | inconclusive [falling, partial curve]
CC(=O)Oc1cc2cccc(OC(C)=O)c(=O)c2c(OC(C)=O)c1OC(C)=O | – | inconclusive [falling, single point]
CN(C)S(=O)(=O)N(CC(=O)Nc1cccc(F)c1)c1ccccc1 | – | inconclusive [falling, single point]
COc1cccc(NC(=O)c2cc(-c3ccc(C)o3)nc3ccccc23)c1 | – | inconclusive [falling, partial curve]
O=C1CSC(=S)N1c1ccc(Cl)c(Cl)c1 | – | active: 21.3 µM
O=C(/C=C/c1ccc(OC(F)F)cc1)Nc1cccc(S(=O)(=O)N2CCOCC2)c1 | inactive: -1.75% | –
Clc1ccc(Cn2c(/C=C/c3ccco3)nc3ccccc32)cc1 | inactive: -4.79% | –
N#Cc1cccc(NC(=O)c2ccccc2C(=O)O)c1 | – | inconclusive [falling, partial curve]
Cn1c2ccccc2n2c(=O)c(Cl)c(-c3ccccc3)c(C#N)c12 | – | inconclusive [falling, single point]
O=CN/C=C/c1cc(O)ccc1O | – | active: 30.1 µM
COc1ccc(Nc2oc(-c3ccco3)nc2S(=O)(=O)c2ccc(F)cc2)cc1 | – | inconclusive [falling, single point]
C#CCOCCOCCOCCNc1nc(N2CCN(C(=O)CCCCCCCCCCNC(=O)[C@H](CCCCN)n3cc(C)nn3)CC2)nc(N2CCN(C(=O)CCCCCCCCCCNC(=O)[C@H](CO)n3cc(CCCSC)nn3)CC2)n1 | – | inconclusive [falling, single point]
CCCC(=O)Oc1c(S(=O)(=O)c2ccc(C)cc2)c(C)nn1C(C)(C)C | inactive: -2.55% | –
CCC(=O)Nc1ccc(SC#N)cc1C | – | inconclusive [falling, partial curve]
CCOC(=O)c1ccc(N2C(=O)C=CC2=O)cc1 | – | inconclusive [falling, single point]
O=C(Nc1ccc(Cl)c(Cl)c1)N1CCSC1c1ccco1 (stereo not given) | – | active: 13.5 µM

SMILES | activity, negative = inhibition | Potency
O/N=C/c1ccccc1OCc1ccc(Cl)cc1 | inactive: -1.95% | –
O=C(CN1CCN(c2ccc(O)cc2)CC1)Nc1ccc2c(c1)OCCCO2 | – | inconclusive [falling, single point]
Cc1cccc(N2CCN(S(=O)(=O)c3ccc4[nH]c(=O)c(=O)[nH]c4c3)CC2C)c1 (stereo not given) | – | inconclusive [falling, single point]
Cc1cc(C)c2c(=O)n(CC(=O)NCCCN3CCN(c4ccccc4F)CC3)sc2n1 | – | active: 12 µM
CCOc1ccc(NC(=O)CC2SC(=O)N(c3ccccc3)C2=O)cc1 (stereo not given) | – | inconclusive [falling, single point]
Cc1sc(NC(=O)c2cc(-c3ccccc3)nc3ccccc23)c(C(N)=O)c1C | inactive: -7.99% | –
COC(=O)c1nn(-c2ccc3c(c2)CCN3C(C)=O)cc1O | – | inconclusive [falling, single point]
Cn1ncc2c(c(SCc3ccc(Cl)cc3Cl)nn2C)c1=O | – | inconclusive [falling, single point]
Cc1cc(C)c(S(=O)(=O)/N=C2\C=C(NS(=O)(=O)c3ccccc3)C(=O)c3ccccc32)c(C)c1 | inactive: -7.67% | –
COc1ccc(C(=S)N2CCOCC2)cc1OC(=O)c1cc(OC)c(OC)c(OC)c1 | – | inconclusive [falling, partial curve]
COc1ccccc1S(=O)(=O)Cc1ccc(C(=O)N2CCN(c3cccc(Cl)c3)CC2)o1 | – | inconclusive [falling, single point]
O=C(Nc1cccc(-c2nc3ccccc3s2)c1)c1cccs1 | inactive: -0.108% | –
CNc1ccc2c3c(cccc13)C(=O)N(C)C2=O | inactive: -5.95% | –
CCCCN(C(=O)c1cc(-c2ccco2)nc2ccccc12)c1c(N)n(CCC)c(=O)[nH]c1=O | – | inconclusive [falling, single point]
Cc1ccc(Cl)cc1NC(=O)CSc1sc2c(O)cc(=O)[nH]c2c1C#N | inactive: -2.75% | –
S=c1nc(Cc2ccc(Cl)cc2)[nH]c2ccccc12 | inactive: -1.37% | –
CC1=NOC(=O)/C1=C\c1ccc(-c2ccc(Br)cc2)o1 | – | inconclusive [falling, single point]
C=CCOc1ccc(C=NNc2ccc(S(=O)(=O)Nc3ccccc3C(=O)O)cc2[N+](=O)[O-])cc1OC | – | inconclusive [falling, full curve]
COCc1n[nH]c(=S)n1-c1ccccc1 | – | inconclusive [falling, single point]
Cc1sc2nc(CN3CCN(c4ccc(O)cc4)CC3)[nH]c(=O)c2c1C | – | inconclusive [falling, partial curve]
Cc1ccc(/C=C2/Sc3ccc(C(=O)NCc4ccccn4)cc3NC2=O)cc1 | inactive: -5.24% | –
O=C(O)CN1C(=O)/C(=C/C=C/c2ccccc2)SC1=S | inactive: 0.753% | –
COc1cc(SSc2cc(OC)cc([N+](=O)[O-])c2N)c(N)c([N+](=O)[O-])c1 | – | active: 3.38 µM
Cc1cc(C(=O)NNc2ccc(F)cc2)no1 | – | inconclusive [falling, single point]
CCCCCCCNC(=O)C1(CC2CC(c3cccc(Br)c3)=NO2)CCN(C(=O)c2cc(OCC)c(OCC)c(OCC)c2)CC1 (stereo not given) | – | inconclusive [falling, single point]

SMILES | activity, negative = inhibition | Potency
COc1ccc(N(CC(=O)N/N=C/c2ccco2)S(=O)(=O)c2ccccc2)cc1 | – | inconclusive [falling, single point]
COCCn1c(SCC(=O)Nc2ccccc2OC)nc2c(oc3ccccc32)c1=O | inactive: 0.0666% | –
Cc1ccccc1C(=O)Oc1cc(N)n(S(C)(=O)=O)n1 | inactive: -4.54% | –
CCCCOc1ccc(-c2c(C#N)c(N)nc(SCC(N)=O)c2C#N)cc1 | inactive: 7.29% | –
COc1ccc(-c2ccc(SC)nn2)cc1 | – | inconclusive [falling, partial curve]
CCCCCCCn1ccc(=N)cc1 | inactive: -0.128% | –
CCc1cccc(C)c1NC(=O)COn1nnc2ccc(C(F)(F)F)cc21 | – | inconclusive [falling, single point]
CC(=O)Nc1ccc(N/C=C/C(=O)c2ccccc2)cc1 | inactive: -0.837% | –
O=C(C1=C[C@@H](c2csc3ccccc23)C[C@@H](OCc2ccc(CO)cc2)O1)N1CCN(Cc2ccc3c(c2)OCO3)CC1 | inactive: 0.394% | –
O=C(Cn1ccnc1)c1ccc(O)c(O)c1 | – | inconclusive [falling, single point]
O=C(Nc1ccc(Cl)c(Cl)c1)N1CCSCC1 | – | inconclusive [falling, partial curve]
Cc1cccc(-n2c(C)cc(/C=N/NC(N)=S)c2C)c1 | – | inconclusive [falling, single point]
O=C1Nc2ccccc2C(=O)C1(Cl)Cc1ccccc1 (stereo not given) | – | inconclusive [falling, partial curve]
COC(=O)c1ccccc1N1C(=O)C2C(C1=O)C1C=CC2C12CC2 (stereo not given) | – | inconclusive [falling, single point]
CCCCOc1ccc(CSC(=N)N)cc1Cl | inactive: -2.98% | –
Cn1c(COc2ccccc2)nnc1SCC(=O)c1cccc([N+](=O)[O-])c1 | inactive: -3.79% | –
CNC(=O)c1cn(-c2ccc(Cl)cc2)c(=O)c2ccccc12 | inactive: -0.844% | –
CC(Nc1cccc([N+](=O)[O-])c1)C(=O)Nc1ccc(S(=O)(=O)N2CCCC2)cc1 (stereo not given) | – | inconclusive [falling, partial curve]
Cc1ccc(S(=O)(=O)/N=C2/NC(=O)/C(=C\c3cc(Br)cc(Br)c3O)S2)cc1 | – | inconclusive [falling, single point]
O=C(O)/C=C/c1cn(Cc2ccccc2)nc1-c1ccc(Cl)cc1 | inactive: -1.01% | –
O=C1/C(=C\c2ccco2)SC(=S)N1Cc1ccccc1 | inactive: -8.02% | –
O=C(Nc1ccc2ccccc2c1)c1cccc([N+](=O)[O-])c1 | – | inconclusive [activator, single point]
O=C(CSC(=O)c1ccccc1)Nc1ccccc1F | inactive: -6.08% | –
Cc1ccc(NN2C(=O)C=C(c3ccccc3)C2=O)cc1 | – | inconclusive [falling, single point]
CNc1nc(-c2ccccc2)[n+](-c2ccc(C)cc2)s1 | – | inconclusive [falling, single point]
